Test results as given in PubChem BioAssay AID2675 (National Center for Advancing Translational Sciences (NCATS), 2010).
The whole screen tested about 280,000 compounds, of which about 100 (0.036%) were called active. The inconclusive results got no clear call from the source; some entries with a clear call stand among them for comparison. The call rests on the fitted dose curve; in most records, active means well fitted inhibition curve with a large enough effect in the signal ratio, with a control signal flat (not every such curve was filed as active); inconclusive means small, poorly fitted or top-dose-only effect, or effect the other way, or a change in a side signal; inactive means no such curve, though single readings can be large or run the other way; the % refers to the signal ratio. Where the call is inconclusive, the potency comes from a doubtful curve fit. A note “side channel” means that the fit belongs to a control or component signal, not to the main read-out.

target: Muscleblind-like protein 1 (Homo sapiens) (UniProt Q9NR56); experiment: qHTS Assay for Inhibitors of MBNL1-poly(CUG) RNA binding; conditions: TR-FRET MBNL1-His/biotin-(CUG)12 binding, 665/545 ratio; series mostly up to 57.5 µM
Chain of UniProt Q9NR56 (Q9NR56 whole entry, looked up): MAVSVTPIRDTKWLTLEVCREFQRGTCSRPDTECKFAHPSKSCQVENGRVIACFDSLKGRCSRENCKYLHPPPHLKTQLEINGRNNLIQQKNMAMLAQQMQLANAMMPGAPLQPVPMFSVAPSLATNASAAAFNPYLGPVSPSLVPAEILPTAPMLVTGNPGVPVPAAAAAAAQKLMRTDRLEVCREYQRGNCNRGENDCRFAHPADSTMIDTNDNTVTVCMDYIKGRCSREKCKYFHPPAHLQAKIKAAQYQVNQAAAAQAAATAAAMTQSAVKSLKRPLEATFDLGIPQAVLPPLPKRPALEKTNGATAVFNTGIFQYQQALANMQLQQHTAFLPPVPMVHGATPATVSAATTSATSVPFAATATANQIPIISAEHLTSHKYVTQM
In short: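 His-tagged MBNL1 binding to biotinylated (CUG)12 RNA was measured by TR-FRET using terbium anti-His antibody (0.055 ng/ul final) and streptavidin-XL665 (5 nM final). Compounds were titrated 92 nM to 58 uM; 60 min at room temperature.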
Potency means the concentration at half of the fitted maximal effect; tags describe the fitted curve by direction and shape or compound fluorescence and quenching.

| Compound | Potency |
| --- | --- |
| Cn1c(O)c(/C=N/Nc2ccccc2)c(=O)n(C)c1=O | inconclusive: 22.4 µM [quencher, side channel, single point] |
| Cc1cc(C)cc(N2C(=O)/C(=C\c3ccc(N4CCN(C)CC4)o3)C(=O)NC2=S)c1 | inconclusive: 11.2 µM [quencher, side channel, partial curve] |
| Cc1ccc(-n2c(O)c(/C=N/Nc3ccccc3)c(=O)[nH]c2=O)cc1C | inconclusive: 22.4 µM [quencher, side channel, single point] |
| O=C(NCC(c1cccs1)N1CCOCC1)c1cc([N+](=O)[O-])cc([N+](=O)[O-])c1 (centres undefined) | inconclusive: 28.2 µM [quencher, side channel, partial curve] |
| CCC(C)/C=C(C)/C=C/C1=CC2=C(Cl)C(=O)C(C)(OC(C)=O)C(=O)C2=CO1 (centres undefined) | inconclusive: 28.2 µM [quencher, side channel, single point] |
| O=[N+]([O-])c1cc(F)c(N2CCCCCC2)cc1N1CCNCC1 | inconclusive: 11.2 µM [quencher, side channel, partial curve] |
| COCCNC(=O)Cn1cc(/C=C2\C(=O)NC(=O)N(c3ccccc3F)C2=O)c2ccccc21 | inactive |
| Fc1ccc(N2CCN(Cc3cc4c(cc3Br)OCO4)CC2)cc1 | inactive |
| O=C(Cc1ccccc1)OCCN1CCCCC1 | inactive |
| CN1CCN(c2ccc([N+](=O)[O-])c3no[n+]([O-])c23)CC1 | inconclusive: 11.2 µM [quencher, side channel, partial curve] |
| CC(C)Oc1cc(-n2c(=S)[nH]c3ccccc3c2=O)c(Cl)cc1Cl | inactive |
| O=C(N/N=C/c1c(O)n(Cc2ccccc2)c(=O)[nH]c1=O)c1ccccc1O | inconclusive: 126 µM [inhibitor, partial curve] |
| CN(C)C(=O)Oc1ccc2c(c1)O/C(=C\c1ccc(Cl)cc1)C2=O | inactive |
| O=C(O)Cn1cc(/C=C2\C(=O)NC(=O)N(c3ccc(F)cc3)C2=O)c2ccccc21 | inactive |
| CCC(CO)Nc1ccc([N+](=O)[O-])c2cccnc12 (centres undefined) | inconclusive: 12.6 µM [quencher, side channel, partial curve] |
| O=C(Oc1ccc([N+](=O)[O-])cc1)N1CCC(N2CCCCC2)CC1 | inconclusive: 7.94 µM [quencher, side channel, partial curve, poor fit] |
| Cc1ccc2c(c1)=C/C(=C\c1c(O)[nH]c(=S)[nH]c1=O)C(=O)N=2 | inconclusive: 28.2 µM [quencher, side channel, partial curve] |
| CC(C)c1ccc(N=Nc2c(O)[nH]c(=O)[nH]c2=O)cc1 | inconclusive: 0.794 µM [quencher, side channel, full curve] |
| Cc1ccc2nsnc2c1-n1c(C)nc2ccccc2c1=O | inconclusive: 14.1 µM [quencher, side channel, partial curve] |
| O=c1c2ccccc2ncn1-c1ccc([N+](=O)[O-])c(C(F)(F)F)c1 | inconclusive: 11.2 µM [quencher, side channel, partial curve] |

| Compound | Potency |
| --- | --- |
| O=C(NCc1ccccc1)c1cccn(Cc2ccccc2)c1=O | inconclusive: 1.58 µM [quencher, side channel, full curve] |
| CC(O)CNc1ccc([N+](=O)[O-])c2cccnc12 (centres undefined) | inconclusive: 10 µM [quencher, partial curve] |
| CCN1CCN(c2cc(N3CCCC3)c(F)cc2[N+](=O)[O-])CC1 | inconclusive: 14.1 µM [quencher, side channel, partial curve] |
| O=c1[nH]c(=O)n(-c2ccccc2)c(O)c1N=Nc1ccc(Br)cc1 | inconclusive: 12.6 µM [quencher, side channel, partial curve] |
| COc1cc2c(cc1OC)C(C1c3cc4c(cc3CCN1C)OCO4)OC2=O (centres undefined) | inactive |
| CN1CCN(c2ccc(/C=C3\C(=O)NC(=S)N(c4cccc(Br)c4)C3=O)o2)CC1 | inconclusive: 15.8 µM [quencher, side channel, partial curve] |
| Cc1nc2cc([N+](=O)[O-])ccc2c(=O)n1-c1ccccc1[N+](=O)[O-] | inconclusive: 14.1 µM [quencher, side channel, partial curve] |
| COc1cc(-n2c(=S)[nH]c3ccccc3c2=O)c(Cl)cc1Cl | inactive |
| CCOc1ccc(-c2cc(C)[n+](CCO)c(-c3ccc(OCC)cc3)c2)cc1 | inconclusive: 4.47 µM [quencher, side channel, full curve] |
| COc1ccc2nc3oc(C(=O)N4CCC5(CC4)OCCO5)cc3cc2c1 | inconclusive: 17.8 µM [quencher, side channel, partial curve] |
| BrCC1C[n+]2c(SCc3ccccc3)nc3sc4c(c3c2O1)CCCC4 (centres undefined) | inactive |
| Cc1cc(C=C(C#N)C#N)ccc1N1CCCC1 | inconclusive: 25.1 µM [quencher, side channel, partial curve] |
| CCOc1ccc2nc(N(CCN(CC)CC)C(=O)c3ccc([N+](=O)[O-])cc3)sc2c1 | inconclusive: 22.4 µM [quencher, side channel, single point] |
| O=C1C(=O)N(c2nccs2)C(c2ccccc2)/C1=C(\O)c1ccc2c(c1)OCCO2 (centres undefined) | inconclusive: 10 µM [quencher, side channel, partial curve] |
| Cc1n[nH]c(C)c1CCCCOc1ccc([N+](=O)[O-])cc1 | inconclusive: 28.2 µM [quencher, side channel, single point] |
| CN1C(=O)NC(=O)/C(=C/c2ccc([N+](=O)[O-])s2)C1=O | inconclusive: 15.8 µM [quencher, side channel, partial curve] |
| O=c1[nH]c(=S)n(C2CC2)c(O)c1/C=N/Nc1ccccc1 | inconclusive: 25.1 µM [activator, single point] |
| Cc1nc2ccc(Cl)cc2c(=O)n1-c1ccc([N+](=O)[O-])cc1 | inconclusive: 15.8 µM [quencher, side channel, partial curve] |
| O=C(O)c1cccc2nc3ccccc3nc12 | inconclusive: 10 µM [quencher, full curve] |
| Nc1c(C(=O)NCCN2CCOCC2)c2nc3ccccc3nc2n1Cc1ccco1 | inconclusive: 25.1 µM [quencher, side channel, partial curve] |

| Compound | Potency |
| --- | --- |
| Cc1ccc(OCC(=O)N2CCN(Cc3ccc([N+](=O)[O-])cc3)CC2)cc1 | inconclusive: 22.4 µM [quencher, side channel, single point] |
| COc1ccc(P2(=O)Nc3ccccc3N2)cc1 | inconclusive: 25.1 µM [quencher, side channel, single point] |
| CCCC/C(C)=C/[C@@H](NP(=O)(c1ccccc1)c1ccccc1)c1ccccc1 | inconclusive: 1 µM [inhibitor, full curve, poor fit] |
| Cn1c(O)c(/C=C/C=Nc2ccccc2)c(=O)n(C)c1=S | inconclusive: 22.4 µM [activator, partial curve] |
| O=[N+]([O-])c1cnc2ccc3ccccc3c2c1 | inconclusive: 7.08 µM [quencher, side channel, partial curve] |
| Nc1nc(N)c2nc(CNc3ccc(C(=O)NC(CCC(=O)O)C(=O)O)cc3)cnc2n1 (centres undefined) | inconclusive: 3.55 µM [quencher, side channel, full curve] |
| C/C(=N\OC(=O)NC(C)C)c1sc(-c2ccccc2)nc1C | inconclusive: 15.8 µM [quencher, side channel, partial curve] |
| CCN1C(=O)C(=C2C=C(C)N(Cc3ccco3)C(C)=C2)C(=O)N(CC)C1=S | inconclusive: 14.1 µM [fluorescent, side channel, partial curve] |
| CC(=O)C1C2c3ccccc3O[C@@]1(C)N=c1s/c(=C/c3ccoc3)c(=O)n12 (some centres undefined) | inconclusive: 20 µM [quencher, side channel, single point] |
| OC(Cn1c2ccccc2c2ccccc21)C[n+]1cccc2ccccc21 (centres undefined) | inconclusive: 15.8 µM [quencher, partial curve] |
| COc1cc(/C=C/c2cccc[n+]2C)ccc1OCC(=O)Nc1ccccc1C | inconclusive: 14.1 µM [quencher, side channel, partial curve] |
| O=C1CC(C(=O)N2CCC3(CC2)OCCO3)CN1CCc1ccccc1 (centres undefined) | inactive |
| COc1ccc(CC(C)NCCC(c2ccccc2)c2ccccc2)cc1 (centres undefined) | inactive |
| CN1CC(C(=O)c2ccc([N+](=O)[O-])cc2)C(c2ccc(Cl)cc2)C1 (centres undefined) | inconclusive: 10 µM [quencher, side channel, partial curve] |
| Cc1cccc(CN2CCCC(C(=O)c3ccc(C(F)(F)F)cc3)C2)n1 (centres undefined) | inactive |
| O=C(Cc1ccccc1)N1CCN(CC2CC3C=CC2C3)CC1 (centres undefined) | inconclusive: 39.8 µM [quencher, side channel, single point] |
| C[C@@H]1C2C[C@@]34COC(=O)C3=CC=C[C@H]4[C@@]13C[C@H](c1ccoc1)O[C@@H]3O2 | inconclusive: 17.8 µM [quencher, side channel, single point] |
| CCNC(=S)N(C)CCc1cc2c(c(OC)c1C=C1C(=O)N(C)C(=O)N(C)C1=O)OCO2 | inconclusive: 25.1 µM [quencher, side channel, partial curve] |
| CCC(C)n1c(O)c(/C=N/NC(=O)c2ccncc2)c(=O)[nH]c1=S (centres undefined) | inconclusive: 3.98 µM [quencher, side channel, full curve, poor fit] |
